We go through 81 compounds from paper PMC9574860, “Chemical Toolkit for PARK7: Potent, Selective, and High-Throughput” (Journal of Medicinal Chemistry, 2022).

Among all 7,900 compounds or so, about 400 (5.1%) showed an effect of 50% or more. The list shows a part of the results.

Sequence of Parkinson's disease protein 7 (PARK7/DJ1) (Q99497 whole entry, looked up, the tested form may be a part): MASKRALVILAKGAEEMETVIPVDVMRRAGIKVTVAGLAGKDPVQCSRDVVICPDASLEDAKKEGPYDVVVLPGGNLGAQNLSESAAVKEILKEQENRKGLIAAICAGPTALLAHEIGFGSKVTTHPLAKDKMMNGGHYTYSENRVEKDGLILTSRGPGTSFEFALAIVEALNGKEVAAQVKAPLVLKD

In the test the target is Parkinson's disease protein 7 (PARK7/DJ1) (human, UniProt Q99497). Briefly: primary screen, percent inhibition; read as competition with a fluorescent probe by fluorescence polarization; higher = more effect of the substance. As to conditions: 100 µM. A digest of the protocol:
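Fluorescence-polarization probe displacement (JYQ-107, 20 nM final, 2 h) after 2 h preincubation of PARK7 (0.2 μM final) with each fragment at 100 μM final. Read-out ex/em 480/520 nm; remaining activity derived from FP signal loss relative to reference controls.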
With `CC1(C(=O)O)CCN(C(=O)C=Cc2ccccn2)C1` (stereo not drawn), the Inhibition % turned out to be 5.25%.

For `O=C(CCl)Nc1ncc([N+](=O)[O-])s1`, the Inhibition % came to 96.3%. Turning to `N#Cc1cc(Oc2ccc(N)cc2)ccn1`, the Inhibition % is 13.6%. On to `Cc1cc(CN(C)S(=O)(=O)C=Cc2ccccc2)no1`, for which the Inhibition % was -3.7%. Next, `C=C(C)CN1CCN(c2oc(C3CC3)nc2C#N)CC1`: 3.31%; `CSC1CCCC(Nc2ccc(C#N)nc2)C1` (stereo not drawn): 8.87%. Take `N#Cc1cc(C(=O)Nc2cc[nH]n2)c[nH]1`: the Inhibition % is on record as 19.5%. The figure for `Cc1ccc(NC(=O)CCl)cc1S(N)(=O)=O` is 17.6%. The figure for `C=CC(=O)NC1CCCC2CCCCC21` (stereo not drawn) is 1.96%; for `Cc1ccccc1-c1noc(=O)n1CC(N)=O` it is 4.11%; for `O=C(CCl)NNC(=O)c1cc2c(s1)CCCC2` it is 4.38%.

In the case of `C=CC(=O)N1CCN(C2CC2)c2cc(F)ccc21`, the Inhibition % turned out to be 18.7%. The figure for `Cc1cc(C)c(NC(=O)Cn2cnc(C#N)n2)c(C)c1` is 3.59%. Next, `OB(O)C1CCN(Cc2cc3n(n2)CCCC3)C1` (stereo not drawn): 5.29%; `N#CN(CC1CCOC1)c1ccc(F)cc1` (stereo not drawn): 6.47%; `O=C(CCl)NCC1CCCc2ccccc21` (stereo not drawn): 0.905%. Next, `Cc1nc(S)c(C#N)c(C)c1C`: 3.15%; `C=CC(=O)NC1CC(OCC)C12CCCC2` (stereo not drawn): 8.99%; `O=C1CN=C(S)N1c1ccccc1Cl`: 5.52%. `C=CC(=O)N1CCNC(=O)C1Cc1nc2ccccc2o1` (stereo not drawn): the Inhibition % is on record as 7.43%.

Regarding `COc1ccc(-c2csc(NC(=O)CCl)n2)cc1`, the Inhibition % is given as 14%.

For the compound `CC(NC(=O)CCl)c1cccs1` (stereo not drawn), the Inhibition % is reported as 9.37%.

Take `N#Cc1ncccc1O`: the Inhibition % turned out to be 23.2%. The figure for `Cc1c(-c2ccccc2)[nH]c(=S)[nH]c1=O` is 9.98%. In the case of `CS(=O)(=O)c1ccc(F)c(NC(=O)CCl)c1`, the Inhibition % is 3.84%.

Consider `N#Cc1ccc(N2CC(O)CC2c2ccc(F)cc2)cn1` (stereo not drawn), for which the Inhibition % is 5.17%.

For the compound `C#Cc1cccc(NS(=O)(=O)C=Cc2ccccc2)c1`, the Inhibition % is recorded as -2.07%. Turning to `CC(NC(=O)CCl)c1ccco1` (stereo not drawn), the Inhibition % was 12.3%. On to `N#Cc1ccc(OCC2CO2)cc1` (stereo not drawn), for which the Inhibition % amounted to 1.24%. The figure for `C=CC(=O)N1Cc2cnn(C)c2C1` is 14.1%; for `CC(C)n1ccc(=O)nc1S` it is 1.42%; for `C=CC(=O)NC1CCCN(C(=O)OC)C1` (stereo not drawn) it is 4.18%.

As for `NC(=O)CCN(C(=O)CCl)c1ccc(F)cc1`, the Inhibition % was found to be 37.5%.

On to `CCOC(=O)c1c(NC(=O)CCl)sc2c1CCCC2`, for which the Inhibition % was found to be 2.08%.

Regarding `N#Cc1[nH]ncc1NS(=O)(=O)c1ccc2c(c1)CCCC2`, the Inhibition % is given as 5.98%.

Consider `C=CC(=O)N1CC(C)OC(C(F)(F)F)C1` (stereo not drawn), for which the Inhibition % is given as 14.7%. The figure for `CS(=O)(=O)c1cccnc1C#N` is 5.26%.

With `CC1CCC(N(C)C(=O)CCl)CC1` (stereo not drawn), the Inhibition % came out at 101%. Next, `O=C(CCl)NCC(=O)Nc1ccc(F)c(F)c1F`: 4.68%; `Cc1cccc(Oc2nccnc2C#N)c1`: 1.62%.

Turning to `C=CC(=O)Nc1c(C)ccn2ncnc12`, the Inhibition % is recorded as 6.69%. Next, `CCC1(NC(=O)c2ccc(C#N)[nH]2)CCC1`: 7.61%; `O=C(CCl)NCc1ccc(-c2ccc(Cl)cc2)o1`: 18.1%; `CN(C)C(=O)c1csc(C(=O)CCl)c1`: 67.8%.

In the case of `O=C(CCl)NCc1ccc(N2CCCC2)cc1`, the Inhibition % is 0.611%. The figure for `Cc1cc(C=C(C#N)C(=O)NC(C)C)cc(C)c1O` is 4.49%; for `O=C(O)CC1SC(=O)N(c2ccccc2)C1=O` (stereo not drawn) it is 12.3%; for `C=CC(=O)N1CCCCC1c1noc(C)n1` (stereo not drawn) it is 3.88%.

As to `O=C(CCl)NC(=O)NC1CCS(=O)(=O)C1` (stereo not drawn), the Inhibition % is on record as 11.9%.

Consider `N#Cc1ccc(Cl)c(Cl)n1`, for which the Inhibition % is 5.12%. Next, `O=C(CCl)NCc1ccccc1CN1CCCC1=O`: 1.17%; `C=CCNC(=O)C(C#N)=Cc1cccc(Cl)c1`: 29.5%. On to `Cc1cc(S(=O)(=O)n2cccn2)ccc1Cl`, for which the Inhibition % is reported as 0.878%. The figure for `Cc1ccc(B2OC(C)(C)C(C)(C)O2)s1` is 2.39%. Next, `COc1ccc(C2CCCN2C(=O)C2CCC(=O)O2)cc1` (stereo not drawn): 4.79%; `COc1ccc(C(NC(=O)CCl)C2CC2)cc1` (stereo not drawn): 2.94%.

With `CC(C)N(C)C(=O)C1CCN(C(=O)CCl)CC1`, the Inhibition % amounted to 20.4%.

In the case of `COc1ccc(C=C(C#N)C(=O)O)cc1`, the Inhibition % amounted to 15.2%.

In the case of `O=C(CCCl)Nc1ccc(F)c(F)c1`, the Inhibition % is listed as 2.02%.

As to `CCCn1ccc(B2OC(C)(C)C(C)(C)O2)n1`, the Inhibition % is given as 3.4%. The figure for `O=C(CCl)N1CCc2sccc2C1c1ccccc1` (stereo not drawn) is 1.12%; for `C=CC(=O)NCc1cc(C2CC2)ccc1F` it is 7.51%.

`C=CC(=O)N1CC(c2ccccc2)C1`: the Inhibition % was found to be 12.4%. The figure for `C=CC(=O)N1CCN(Cc2cn(C)nc2C)CC1` is 14%; for `CCc1cccc(N2C(=O)CN=C2S)c1` it is 0.493%; for `O=C(CCl)Nc1nc2ccc(Br)cc2s1` it is 3.52%. As to `c1cc(C2CC2)cc(C2CO2)c1` (stereo not drawn), the Inhibition % turned out to be 10.8%.

Regarding `Cl.O=C(CCl)NCCc1cccc2cccnc12`, the Inhibition % came to 30.3%. In the case of `CC1CC(N2CCCC2c2ccsc2)C(=O)O1` (stereo not drawn), the Inhibition % turned out to be 1.18%. Next, `N#Cc1nccnc1Sc1cccc(F)c1`: 3.31%. The figure for `O=C(Nc1cccnc1)Oc1ccccc1` is 15.8%; for `CC1CC(N2CCCC(NS(C)(=O)=O)C2)C(=O)O1` (stereo not drawn) it is 7.71%.

`O=C1CN=C(S)N1c1cccc(Cl)c1`: the Inhibition % was 2.22%. The figure for `CCOc1cc(C)c(C)cc1S(=O)(=O)n1cnc(C)c1` is 9.34%; for `O=C(O)[C@H]1[C@H]2C(=O)OC[C@]23CC[C@H]1O3` (racemic) it is 7.05%. The figure for `C=CC(=O)NC1CCCN(c2cccnc2)C1=O` (stereo not drawn) is 15.4%; for `CC1(C)OB(c2ccc(CC(F)(F)F)cc2)OC1(C)C` it is 2.89%; for `Cc1ccc(C)c(OCC2CO2)c1` (stereo not drawn) it is 8.85%. On to `N#Cc1coc(C2CCC2)n1`, for which the Inhibition % is on record as 7.28%. The figure for `O=C(NCCN1C(=O)CCC1=O)c1ccc2[nH]ccc2c1` is 4.5%. Regarding `Cc1cc(C)c(NC(=O)CCl)c(C)c1`, the Inhibition % is 6.49%.
